Columns and labels:
[1] = molecular target: T1, mSlit2-D2 (murine, UniProt Q9WVC1 11-484 (rat entry)); assay: ELISA, mSlit2-D2 coated, Robo1-Fc L1 titrated
T1 construct: also called murine Slit2 protein
T1 chain: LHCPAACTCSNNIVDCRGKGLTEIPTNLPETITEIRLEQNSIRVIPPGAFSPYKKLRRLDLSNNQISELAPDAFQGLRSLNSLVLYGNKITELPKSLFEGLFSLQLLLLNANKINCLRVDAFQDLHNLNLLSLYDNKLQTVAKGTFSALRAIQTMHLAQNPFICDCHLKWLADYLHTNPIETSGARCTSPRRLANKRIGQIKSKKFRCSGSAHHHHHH
Protocol: The murine protein mSlit2-D2 was bound to an Immulon-4 enzyme-linked plate (VWR Scientific Inc. Swedesboro, N.J.). A concentration range (from 2 μg/mL to 0.002 μg/mL) of the Robo1-Fc L1 fusion protein was added and then detected using the peroxidase-conjugated goat anti-human IgG antibody (Sigma; ref. A0170, dilution to 1:50 000). Visualization was carried out with the TMB-H₂O₂ substrate (Interchim; ref UP664780) and the measurements were carried out with a plate reader at 450 nm.

[2] = molecular target: T2, Slit2-D1D2 (human, UniProt O94813 31-479); assay: FACS on HEK293 cells transiently expressing Slit2-D1D2
T2 construct: In the FACS assay expressed by transient transfection of pXL4912 in HEK293 cells
T2 sequence: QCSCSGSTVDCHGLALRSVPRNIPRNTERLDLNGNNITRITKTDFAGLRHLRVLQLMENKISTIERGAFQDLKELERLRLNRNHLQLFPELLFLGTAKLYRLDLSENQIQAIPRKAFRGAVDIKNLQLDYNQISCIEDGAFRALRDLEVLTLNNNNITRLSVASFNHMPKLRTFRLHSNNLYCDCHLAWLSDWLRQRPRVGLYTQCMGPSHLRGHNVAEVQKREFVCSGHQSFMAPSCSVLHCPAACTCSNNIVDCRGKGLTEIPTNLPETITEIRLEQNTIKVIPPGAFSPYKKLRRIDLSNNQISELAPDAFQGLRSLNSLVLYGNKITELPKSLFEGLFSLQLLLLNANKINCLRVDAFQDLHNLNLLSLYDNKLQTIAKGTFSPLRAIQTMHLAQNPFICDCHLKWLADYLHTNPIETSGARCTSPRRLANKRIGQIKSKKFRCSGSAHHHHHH
Protocol: The HEK293 cells described and used as in example 1 were transfected either with a ballast plasmid, having no cDNA that encodes in the mammalian cell, or the pXL4911 plasmid encoding the Slit2-D2 protein, or the pXL4912 plasmid encoding the Slit2-D1D2 protein, or pXL5033 encoding the Slit2-N protein described in example 2, The cells were distributed into 96-well plates 48 hours post-transfection, and the Robo1-Fc protein was added in a concentration range of from 0.01 to 3 mg/L for 30 min at 4° C. The Robo1-Fc protein is either the Robo1-Fc L1 biotherapeutic agent, or the Robo1-Fc Slit2-minus mutant, or the Robo1-Fc heparin-minus mutant. The cells were washed and the anti-human Fc antibody labelled with Alexa 488 (ref: A-11013, Invitrogen) was incubated for 30 min at 4° C. The labelled HEK293 cells are then quantified by FACS (Geomean).

[3] = molecular target: T3, Slit1-D2 (human); assay: ELISA, Slit1-D2 coated, Robo1-Fc titrated, anti-human IgG-HRP
T3 chain: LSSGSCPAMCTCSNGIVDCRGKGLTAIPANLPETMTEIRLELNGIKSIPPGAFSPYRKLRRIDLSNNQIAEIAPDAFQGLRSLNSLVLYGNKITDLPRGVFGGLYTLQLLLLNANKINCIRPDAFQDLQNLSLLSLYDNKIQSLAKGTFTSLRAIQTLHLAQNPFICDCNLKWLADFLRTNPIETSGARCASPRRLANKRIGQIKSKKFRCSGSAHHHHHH
Protocol: (§1) The D2 domain of the human Slit variants was bound to Immulon-4 enzyme-linked plates (VWR Scientific Inc. Swedesboro, N.J.). A concentration range (from 1 μg/mL to 0.001 μg/mL) of the Robo1-Fc L1 fusion protein was added and than detected using the peroxidase-conjugated goat anti-human IgG antibody (Sigma; ref. A0170, dilution to 1:50 000). Visualization was carried out with the TMB-H₂O₂ substrate (Interchim; ref UP664780) and the measurements were carried out with a plate reader at 450 nm. Similarly, the Robo1-Fc Slit2-minus variant, which is mutated at the level of the Slit2-binding site, was evaluated according to a concentration range (from 20 μg/mL to 0.02 μg/mL) by ELISA assay under the same conditions described above.

[4] = molecular target: T4, Slit3-D2 (human); assay: ELISA, Slit3-D2 coated, Robo1-Fc titrated, anti-human IgG-HRP
T4 chain: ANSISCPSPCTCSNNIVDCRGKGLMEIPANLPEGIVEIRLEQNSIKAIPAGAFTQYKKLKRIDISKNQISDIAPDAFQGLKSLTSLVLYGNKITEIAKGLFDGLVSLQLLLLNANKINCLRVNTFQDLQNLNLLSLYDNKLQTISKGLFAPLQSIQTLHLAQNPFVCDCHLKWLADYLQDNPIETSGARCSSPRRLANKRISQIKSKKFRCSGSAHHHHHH
Protocol: as §1

[5] = molecular target: T5, Slit2-D2 (human); assay: SPR (BIAcore 2000), Robo1-Fc on CM5 chip, steady-state analysis
T5 construct: Used purified (ELISA, SPR) and expressed by transient transfection of pXL4911 in HEK293 cells (FACS); also called human Slit2-D2 protein; D2 domain of human Slit2
T5 chain: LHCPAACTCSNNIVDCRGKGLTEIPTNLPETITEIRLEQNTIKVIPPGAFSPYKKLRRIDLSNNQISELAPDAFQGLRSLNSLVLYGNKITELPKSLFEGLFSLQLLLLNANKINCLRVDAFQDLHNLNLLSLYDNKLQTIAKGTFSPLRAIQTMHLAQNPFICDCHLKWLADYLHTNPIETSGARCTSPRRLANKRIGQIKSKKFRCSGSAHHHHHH
Protocol: This example describes the determination of the affinity constant of the Robo 1-Fc L1 fusion protein with the human Slit2 protein (in this experiment, Slit2-D2) by SPR (Surface Plasmon Resonance; BIAcore 2000). The interaction between the Robo1-Fc protein and the human Slit2 protein was analysed after having bound the Robo1-Fc fusion protein to a CM5 chip. The kinetic measurements were carried out according to the protocol of Canziani et al. (2004. Anal, Biochem. 325: 301-307).

[6] = molecular target: T5, Slit2-D2; assay: SPR, Slit2-D2 on CM5 chip, two-phase Scatchard model, low-affinity site
Protocol: A second method, which consists in determining the affinity constant between the Robo1-Fc L1 fusion protein and the human Slit2 protein, was analysed after having bound the Slit2-D2 protein to the CM5 chip. The kinetic measurements are carried out according to the protocol of Canziani eta((2004. Anal. Biochem. 325: 301-307) using the Scatchard method according to a model with two non-equivalent binding sites, […]

- EC50 [1]: 0.221 µg/mL
- Kd [2]: 0.98 nM
- EC50 [3]: 0.0788 µg/mL
- EC50 [4]: 0.26 µg/mL
- Kd [5]: 32 nM
- Kd [6]: 160 nM
B1: Robo1-Fc L1 (Fc fusion)
chain: SRLRQEDFPPRIVEHPSDLIVSKGEPATLNCKAEGRPTPTIEWYKGGERVETDKDDPRSHRMLLPSGSLFFLRIVHGRKSRPDEGVYVCVARNYLGEAVSHNASLEVAILRDDFRQNPSDVMVAVGEPAVMECQPPRGHPEPTISWKKDGSPLDDKDERITIRGGKLMITYTRKSDAGKYVCVGTNMVGERESEVAELTVLERPSFV[here human IgG4 Fc with changes without letters]
notes: also called Robo-Fc L1; Robo1-Fc L1 biotherapeutic agent

Reference: patent US20130039912A1 (Sanofi, published 2013)
